Experimental data published in PubChem BioAssay AID2147 (National Center for Advancing Translational Sciences (NCATS), 2009).
Values joined by “and” are separate entries in the source; they are usually repeats but may differ in a detail not shown here. Identical values can stand only once. Hit rate of the full screen: of about 230,000 compounds, about 3,600 (1.6%) were called active. The shares of active, inactive and inconclusive entries below differ from those in the screen. Calls follow the shape of the dose curve; as a rule, active = well fitted inhibition curve with a large enough effect (not every such curve was filed as active); inconclusive = small, poorly fitted or top-dose-only effect, or another doubt; inactive = no such curve, though single readings can be large or run the other way. A potency beside an inconclusive call is a rough fit, not a confirmed value.

target: Lysine-specific demethylase 4E (Homo sapiens) (UniProt B2RXH2); experiment: qHTS Assay for Inhibitors of Human Jumonji Domain Containing 2E (JMJD2E); details: JMJD2E catalytic domain, FDH-coupled NADH fluorescence (FDH is formaldehyde dehydrogenase); series mostly up to 57.1 µM; activity change, negative = inhibition: at the top concentration
Also: nearly all actives have a fitted effect of over 50% in size.
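For activity change, negative = inhibition in this document: 0% = wells with enzyme and -100% = buffer wells without enzyme.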
Potency is read from the fitted curve at half-maximal effect; tags tell the direction and shape of the fitted curve.

Chain of UniProt B2RXH2 (B2RXH2 whole entry, looked up, the tested form may be a part): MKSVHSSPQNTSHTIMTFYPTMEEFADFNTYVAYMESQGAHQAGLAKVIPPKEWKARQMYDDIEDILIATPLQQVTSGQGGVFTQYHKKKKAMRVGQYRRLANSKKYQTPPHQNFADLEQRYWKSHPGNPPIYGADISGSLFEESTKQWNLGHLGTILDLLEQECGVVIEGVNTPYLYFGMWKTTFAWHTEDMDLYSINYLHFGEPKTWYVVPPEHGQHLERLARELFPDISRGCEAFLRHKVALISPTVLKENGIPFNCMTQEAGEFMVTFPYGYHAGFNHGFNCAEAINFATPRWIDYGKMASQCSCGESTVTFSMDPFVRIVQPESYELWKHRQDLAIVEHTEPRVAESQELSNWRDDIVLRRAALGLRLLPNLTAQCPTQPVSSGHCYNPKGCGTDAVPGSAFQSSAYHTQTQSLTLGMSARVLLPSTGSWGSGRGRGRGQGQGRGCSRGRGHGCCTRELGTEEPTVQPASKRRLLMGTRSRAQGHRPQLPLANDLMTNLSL

| SMILES | Potency | activity change, negative = inhibition |
| --- | --- | --- |
| COc1cc(/C=N/NC(=O)c2cccc([N+](=O)[O-])c2)ccc1OCc1ccccc1 | inconclusive: 31.6 µM [inhibitor, single point] | – |
| CCc1cc(=O)oc2cc(C)c(CN3CCCC3)c(O)c12 | active: 25.1 µM | – |
| c1ccc2c(c1)nnn2Cc1nnc2sc(-c3ccc4c(c3)OCCO4)nn12 | inconclusive: 14.1 µM [inhibitor, partial curve] | – |
| Cc1nc(-c2cccs2)ccc1C(=O)O | inconclusive: 20 µM [inhibitor, partial curve] | – |
| Cc1cccnc1NC(=S)NCCc1ccccc1 | inconclusive: 39.8 µM [inhibitor, single point] | – |
| C=CCN(c1ccc(C(=O)Nc2cccc([N+](=O)[O-])c2)cc1)S(C)(=O)=O | – | inactive: 10.2% |
| Brc1ccc(-c2nnc(-c3ccc4c(c3)OCO4)o2)o1 | inconclusive: 35.5 µM [inhibitor, single point] | – |
| O=C(COc1ccc(Br)cc1)NCc1cn2ccccc2n1 | inconclusive: 35.5 µM [inhibitor, single point] | – |
| CCOc1cc(-c2noc(N)c2C#N)cc(OCC)c1OCC | inconclusive: 39.8 µM [inhibitor, single point] | – |
| COC(=O)C1=CN(Cc2ccc(OC)c(OC)c2)C=C(C(=O)OC)C1c1cccs1 | inconclusive: 28.2 µM [inhibitor, partial curve] | – |
| COc1ccc(-c2cc(=O)[nH]c(NCc3ccccc3)n2)cc1 | inconclusive: 35.5 µM [inhibitor, single point] | – |
| O=C(c1ccc(N2CCOCC2)nc1)N1CCCCC1 | inconclusive: 35.5 µM [inhibitor, partial curve] | – |
| Cc1cccc(/C=N/NC(=O)C(C)Nc2cccc3ccccc23)n1 (configuration not stated) | inconclusive: 14.1 µM [inhibitor, partial curve] | – |
| N#Cc1ccccc1NC(=O)CNc1ccccc1N1CCCCC1 | – | inactive: 1.64% |
| COc1ccc(C(=O)C[n+]2ccccc2/C=N/O)cc1 | inconclusive: 31.6 µM [inhibitor, partial curve] | – |
| COc1ccc2c(c1)CCc1c(C(=O)Nc3c(C)n(C)n(-c4ccccc4)c3=O)noc1-2 | inconclusive: 39.8 µM [inhibitor, single point] | – |
| COc1ccccc1/C=N/N1C(=O)C2C3C=CC(CC3)C2C1=O (configuration not stated) | – | inactive: 2.6% |
| Cn1c(SCC(=O)N/N=C/C=C/c2ccco2)nc2ccccc21 | inconclusive: 39.8 µM [inhibitor, single point] | – |
| O=C(NCC1CCCO1)c1coc2nc3ccccc3nc12 (configuration not stated) | inconclusive: 14.1 µM [inhibitor, partial curve] | – |
| Cn1cc(C2=C(c3ccc(Cl)cc3Cl)C(=O)NC2=O)c2ccccc21 | inactive | – |
| COc1ccc(/C(C#N)=C/c2cccnc2)cc1 | inconclusive: 28.2 µM [inhibitor, partial curve] | – |
| CC(C)(C)c1csc(NC(=O)Cn2cnc3ccccc3c2=O)n1 | – | inactive: 0.478% |
| CN(C)S(=O)(=O)c1cccc(NC(=O)COC(=O)c2ccc([N+](=O)[O-])o2)c1 | – | inactive: -6.46% |
| CCOc1ccc(Nc2oc(-c3ccco3)nc2C#N)cc1 | inconclusive: 39.8 µM [inhibitor, single point] | – |

| SMILES | Potency | activity change, negative = inhibition |
| --- | --- | --- |
| Cc1cc(N2CCOCC2)c2c(N)c(Br)cc(C)c2n1 | inconclusive: 31.6 µM [inhibitor, single point] | – |
| Cc1nn2c(nc(N3CCCCC3)c3ccccc32)c1C=O | – | inactive: 2.48% |
| Cc1cccc(NC(=S)Nc2ccccn2)c1C | – | inactive: -0.233% |
| CNc1ccc(/C=C(\C#N)c2ccccn2)cc1[N+](=O)[O-] | – | inactive: 0.708% |
| NS(=O)(=O)c1ccc(NC(=O)CN2CCCc3ccccc32)cc1 | – | inactive: -3.33% |
| CC1CN(c2ccccc2)C(=O)CS1 (configuration not stated) | – | inactive: 6.35% |
| COc1ccccc1CN(CC(=O)NCc1ccco1)C(=O)CNS(=O)(=O)c1ccc(C)cc1 | – | inactive: 1.35% |
| NNC(=O)CCn1c2ccccc2c2ccccc21 | – | inactive: 22.4% |
| CCc1c(C(=O)Nc2ccccc2)c(C)[nH]c(=S)c1C#N | inconclusive: 31.6 µM [inhibitor, single point] | – |
| CCCC(=O)C1=C(c2ccccc2)C(C#N)(C#N)C(C#N)=C1N | inconclusive: 39.8 µM [inhibitor, single point] | – |
| COc1cc2c(cc1NC(=O)CN(C)Cc1ccc(OC)c(OC)c1)oc1ccccc12 | inconclusive: 25.1 µM [inhibitor, single point] | – |
| C=CCN1C=C2C(=O)C(C)(OC(=O)C3CCCC3)C(=O)C=C2C=C1c1ccsc1 (configuration not stated) | inconclusive: 39.8 µM [inhibitor, single point] and inconclusive: 4.47 µM [inhibitor, single point] | – |
| CCc1cc(=O)oc2cc(OCC(=O)N3CCc4ccccc43)ccc12 | inconclusive: 28.2 µM [inhibitor, single point] | – |
| CCCC(=O)NC(c1ccc(OC)c(OC)c1)c1cc(Cl)c2cccnc2c1O (configuration not stated) | active: 17.8 µM | – |
| C=COCCn1c(=N)n(CCC)c2ccccc21 | inconclusive: 28.2 µM [inhibitor, partial curve] | – |
| CCCCn1c(=O)n(C)c(=O)c2c(C(F)(F)F)cc(-c3ccncc3)nc21 | inconclusive: 8.91 µM [inhibitor, full curve] | – |
| NNC(=O)c1cc2cc3ccccc3nc2s1 | inconclusive: 31.6 µM [inhibitor, single point] | – |
| Cc1ccccc1NC(=O)c1cc(S(=O)(=O)N2CCCCC2)cs1 | – | inactive: 3.48% |
| Cc1cc2cc(CCNC(=O)c3c(-c4ccccc4Cl)noc3C)c(=O)[nH]c2cc1C | inconclusive: 39.8 µM [inhibitor, single point] | – |
| Nc1c(C(=O)OCC2CCCO2)c2nc3ccccc3nc2n1C1CCCCC1 (configuration not stated) | inconclusive: 12.6 µM [inhibitor, partial curve] | – |
| COc1ccc(-c2nc(C#N)c(NC(C)C)o2)cc1 | inconclusive: 28.2 µM [inhibitor, partial curve] | – |
| Cc1ccc(C)c(-n2c(C)cc(/C=N/NC(=O)c3c(C)nc4cc(C)ccn34)c2C)c1 | – | inactive: 3.74% |
| Nc1nc2ccccc2n1C(=O)c1ccco1 | inconclusive: 35.5 µM [inhibitor, single point] | – |
